{"source": "ChEMBL document CHEMBL4888484", "about": "“Replenishing the malaria drug discovery pipeline: Screening and hit evaluation of the MMV Hit Generation Library 1 (HGL1) against asexual blood stage Plasmodium falciparum ,using a nano luciferase reporter read-out” (2022)", "note": "In all, about 150,000 compounds went through this assay and about 540 (0.36%) showed an effect of 50% or more. The list shows a part of the results.", "data": [{"test_system": "Plasmodium falciparum", "assay": "Primary screen in NF54 nanoGlo assay, in single point, at 2uM, 72h; a lower Z score goes with more inhibition", "assay_type": "functional, Erythrocyte", "conditions": "timepoint 72 hour", "units": {"% Inhibition": "%"}, "values": [{"smiles": "O=C(Nc1ccccc1)c1cccnc1NCc1ccccc1", "% Inhibition": -1, "Z score": 0.2}, {"smiles": "COc1cccc(C2=NN(C(=O)CN(CCN3CCOCC3)C(=O)CC(C)(C)C)[C@H](c3ccc4c(c3)OCO4)C2)c1", "% Inhibition": -26, "Z score": 2.31}, {"smiles": "CCCN1C(=O)COc2ccc(-c3noc(-c4cc(OC)c(OC)c(OC)c4)n3)cc21", "% Inhibition": 4, "Z score": -0.48}, {"smiles": "O=C(NCCN1CCOCC1)c1nc(Cc2ccccc2)n(-c2ccccc2)n1", "% Inhibition": -11, "Z score": 1.47}, {"smiles": "COC(C(=O)Nc1ncc(C(F)(F)F)cc1Br)C1CCOC1", "note": "(stereo not given)", "% Inhibition": -16, "Z score": 2.63}, {"smiles": "Cc1ccc(-c2ccc(CCC(=O)NCCc3ccccc3)o2)cc1C", "% Inhibition": -4, "Z score": 0.52}, {"smiles": "Cc1noc(C)c1CNc1cncc(OCC(C)C)n1", "% Inhibition": -6, "Z score": 0.52}, {"smiles": "CCOc1ncccc1CN[C@@H](C)c1ccc(C)s1", "% Inhibition": -6, "Z score": 0.64}, {"smiles": "CCc1ccc(CN[C@@H](C)CCc2ccco2)cc1", "% Inhibition": -2, "Z score": 0.27}, {"smiles": "CCCCN(CCCC)S(=O)(=O)c1c(C)nc(O)nc1O", "% Inhibition": -16, "Z score": 2.04}, {"smiles": "C[C@@H](CC(F)(F)F)Nc1cnn(C)c1", "% Inhibition": 1, "Z score": -0.08}, {"smiles": "O=C1C[C@H](c2nc(-c3cccs3)no2)CN1c1cn[nH]c1", "% Inhibition": -16, "Z score": 2.17}, {"smiles": "O=C(CCN1CCOC1=O)Nc1cc(Cl)c(Cl)cc1Cl", "% Inhibition": -31, "Z score": 3.58}, {"smiles": "Cn1ncc2c1CC(C(=O)NC1CCOC(C3CC3)C1)CC2", "note": "(stereo not given)", "% Inhibition": 10, "Z score": -1.12}, {"smiles": "Cn1c(CCc2ccccc2NC(=O)CC2CCCCC2)nc2ccccc21", "% Inhibition": -11, "Z score": 1.29}, {"smiles": "O=S(=O)(CCOCC1CC1)N1CCS(=O)(=O)C2(CCCCC2)C1", "% Inhibition": -5, "Z score": 0.55}, {"smiles": "O=C(Nc1ccccc1)N1CCO[C@@H](CN2CCN(c3ccccc3F)CC2)C1", "% Inhibition": -10, "Z score": 1}, {"smiles": "CN(C(=O)CC1(C(=O)O)CCC1)[C@H]1CCOc2ccc(Br)cc21", "% Inhibition": 1, "Z score": -0.26}, {"smiles": "N#Cc1cccc(C(=O)N2CCN(C[C@H](O)C3CC3)CC2)c1", "% Inhibition": -11, "Z score": 1.67}, {"smiles": "COc1cc(F)ccc1-c1nc(N)nc(Nc2ccc(C)cc2)n1", "% Inhibition": 1, "Z score": -0.19}, {"smiles": "COc1ccc(NC(=O)Cn2cc(NC(=O)OC(C)(C)C)nn2)cc1", "% Inhibition": -6, "Z score": 0.86}, {"smiles": "Cc1cnn(C[C@H](C)NCc2cn3ccccc3c2C#N)c1", "% Inhibition": -17, "Z score": 2.28}, {"smiles": "CCN1CCN(c2c(CN(CCOC)C(=O)CCC3CCCC3)c(C)nn2-c2cccc(F)c2)CC1", "% Inhibition": -8, "Z score": 1.13}, {"smiles": "CC(=O)c1ccc(F)c(-c2cc(C)cc3c2O[C@@H](CNC(=O)c2ccco2)C3)c1", "% Inhibition": 0, "Z score": -0.08}, {"smiles": "Cc1csc([C@H](C)N(C)C(=O)c2ccc(-n3cnnc3)nc2)n1", "% Inhibition": -12, "Z score": 1.57}, {"smiles": "COc1cc(C[C@@]2(CCC(=O)N3CCCC3)CCC(=O)N2)ccc1F", "% Inhibition": 14, "Z score": -1.72}, {"smiles": "Cc1cc2c(cc1C)[C@@H](N(C(=O)CCOC(C)C)C1CC1)CCCO2", "% Inhibition": -4, "Z score": 0.71}, {"smiles": "CCC(CO)NC(=O)Cc1ccc(NC2CCCC(C#N)C2)cc1", "note": "(stereo not given)", "% Inhibition": -4, "Z score": 0.6}, {"smiles": "O=C(NCC1CCOCC1)c1ccc(-c2ccc(C(F)(F)F)cn2)cc1", "% Inhibition": 1, "Z score": -0.21}, {"smiles": "COc1cccc([C@@H](CNC(=O)c2cc(C3CC3)nc3onc(C)c23)c2c[nH]c3ccccc23)c1OC", "% Inhibition": -12, "Z score": 2.27}, {"smiles": "Cc1cccc(C)c1OCc1cc(C(=O)NC2CCC2)no1", "% Inhibition": -13, "Z score": 1.49}, {"smiles": "COc1ccc(C(=O)N2C[C@@H](COc3ccccc3)[C@H](C(N)=O)C2)cn1", "% Inhibition": -8, "Z score": 1.14}, {"smiles": "CC(C)C[C@H](C)NC(=O)CNc1ccc(S(N)(=O)=O)cc1F", "% Inhibition": -16, "Z score": 1.75}, {"smiles": "Cc1ccc([C@H]2CN(C(=O)c3scc4c3OCCO4)C[C@@H]2N(C)C)cc1", "% Inhibition": -13, "Z score": 1.57}, {"smiles": "O=C(Cn1cnc2ccccc2c1=O)Nc1ccc2c(c1)CCC2", "% Inhibition": -12, "Z score": 1.88}, {"smiles": "CC(C)(O)Cn1ncnc1CCCCc1ccccc1", "% Inhibition": -13, "Z score": 1.78}, {"smiles": "Cc1cnn(Cc2nc(-c3ccccc3Cl)oc2C)c1", "% Inhibition": -7, "Z score": 1.01}, {"smiles": "Cc1nnc2c(NC(=O)C3CCCC3)cccn12", "% Inhibition": -3, "Z score": 0.53}, {"smiles": "CCCc1ncncc1C(=O)N[C@@H]1COCC[C@@H]1Oc1cccc(F)c1", "% Inhibition": -4, "Z score": 0.68}, {"smiles": "Cc1ccccc1N1CCN(C(=O)c2cn3c(n2)CCCC3)CC1", "% Inhibition": -6, "Z score": 0.91}, {"smiles": "Cc1csc(C2(NCc3ccc(C)c(Cl)c3)CCOCC2)n1", "% Inhibition": 5, "Z score": -0.72}, {"smiles": "N[C@H]1CCC[C@@H](c2ncnn2Cc2ccc(F)cc2)C1", "% Inhibition": 0, "Z score": -0.06}, {"smiles": "C#CCN(Cc1csc(CCC)n1)Cc1ccco1", "% Inhibition": -7, "Z score": 0.83}, {"smiles": "O=C(CC[C@@H]1N=C(O)N(Cc2ccco2)C1=O)NCCc1ccc(Cl)cc1", "% Inhibition": 16, "Z score": -2.05}, {"smiles": "CC(C)OCCC(=O)N[C@H](C#N)c1ccccc1F", "% Inhibition": -8, "Z score": 1.07}, {"smiles": "Cc1cnc(CCNC(=O)c2ccnn2C)n1C1CCCC1", "% Inhibition": -7, "Z score": 1.03}, {"smiles": "COc1cc(CNCCN2CCOCC2)ccc1OCc1cccc(C)c1", "% Inhibition": 42, "Z score": -5.6}, {"smiles": "CCc1nn(-c2ccccc2)c(Oc2ccc(C)cc2)c1CN(CC1CC1)C[C@H](O)COC(C)C", "% Inhibition": 9, "Z score": -1.34}, {"smiles": "COc1ccc2c(c1)[C@H](C(=O)Nc1nc(C)nn1C)CC2", "% Inhibition": -4, "Z score": 0.48}, {"smiles": "Cc1cc(=O)cc(C(=O)N2CCC[C@H](C(C)(C)C)CC2)[nH]1", "% Inhibition": -24, "Z score": 2.58}, {"smiles": "CC(C)c1noc(OCC(=O)Nc2ccccc2)n1", "% Inhibition": -7, "Z score": 1.05}, {"smiles": "COc1ccc(-c2cc(N3CCC[C@H](NC(=O)C4CCN(C(C)=O)CC4)C3)[nH]n2)cc1", "% Inhibition": -13, "Z score": 1.33}, {"smiles": "Nc1c(-c2ccccc2F)ncnc1N1CCCCC1", "% Inhibition": 4, "Z score": -0.5}, {"smiles": "COCCn1cc(S(=O)(=O)N2CCC[C@H]3CCCC[C@H]32)cn1", "% Inhibition": -10, "Z score": 1.15}, {"smiles": "Cc1ccc2c(c1)[nH]c(=O)c1c(C(=O)NCc3ccccn3)nnn12", "% Inhibition": -1, "Z score": 0.11}, {"smiles": "FC(F)Cn1nccc1-c1nc(C2(c3ccncc3)CCC2)no1", "% Inhibition": -10, "Z score": 1.71}, {"smiles": "CCOc1ncccc1CN[C@@H](C)C(=O)NC1CCCC1", "% Inhibition": -7, "Z score": 1.16}, {"smiles": "O=C(NCc1ccncc1)c1cn(C2CN(C(=O)C3CCCCC3)C2)nn1", "% Inhibition": -7, "Z score": 1.4}, {"smiles": "NC(=NCc1ccc(O)c(F)c1)N1CCN(c2ccccn2)CC1", "% Inhibition": 5, "Z score": -0.66}, {"smiles": "COc1ccccc1CCNC(=O)c1ccc(Cn2c(C)nc3ccccc32)o1", "% Inhibition": -3, "Z score": 0.54}, {"smiles": "CCNc1cc(N2CCN(C(=O)C(C)C)CC2)nc(C)n1", "% Inhibition": -4, "Z score": 0.65}, {"smiles": "CCN(CC)c1ccc(NC(=O)c2nn(-c3ccc(F)cc3)cc2OC)c(C)c1", "% Inhibition": 15, "Z score": -2.29}, {"smiles": "COCCC1(CNC(=O)NCc2ncc(C)s2)CCCC1", "% Inhibition": -11, "Z score": 1}, {"smiles": "Cc1ccccc1OC[C@H](O)C(=O)NCCCc1nc(C)c(C)s1", "% Inhibition": -11, "Z score": 1.64}, {"smiles": "COCc1ccc(C(=O)N2CC[C@H]2c2cccc(OC)c2)o1", "% Inhibition": -8, "Z score": 1.42}, {"smiles": "Cc1cccc2c1N(Cc1cnc(-c3cccnc3)s1)CC2", "% Inhibition": -11, "Z score": 2.04}, {"smiles": "CCCN1CCCN(C(=O)c2ccc(NC(=O)C3CC3C)cc2)CC1", "note": "(stereo not given)", "% Inhibition": -12, "Z score": 1}, {"smiles": "CCN(CC)S(=O)(=O)c1ccc2c(c1)cc(C(=O)N1CCC(C)CC1)n2C", "% Inhibition": -11, "Z score": 1.56}, {"smiles": "Cc1ccc2sc(-c3ccc(N4C(=O)C5C6CCC(C6)C5C4=O)cc3)nc2c1", "note": "(stereo not given)", "% Inhibition": -10, "Z score": 1.18}, {"smiles": "CCOc1ccc(NC(=O)Cn2nc(N3CCC(C)CC3)c3ccccc3c2=O)cc1", "% Inhibition": -2, "Z score": 0.29}, {"smiles": "CC(C)N(C(=O)CN(C)CCc1ccccn1)C(C)C", "% Inhibition": 4, "Z score": -0.5}, {"smiles": "OCC1(NCc2cc(F)ccc2Br)CC1", "% Inhibition": -18, "Z score": 2.06}, {"smiles": "CN(CCCNC(=O)C1CCN(c2ncnc3c2nc2n3CCCCC2)CC1)Cc1ccccc1", "% Inhibition": -15, "Z score": 2.78}, {"smiles": "COCCn1nnnc1[C@]1(N2CCOCC2)CCCN(C(=O)c2ccoc2C)C1", "% Inhibition": -2, "Z score": 0.21}, {"smiles": "O=C(CC1CCOCC1)N1CCCCC[C@H]1c1noc(-c2ccccc2)n1", "% Inhibition": 0, "Z score": 0}, {"smiles": "NS(=O)(=O)c1ccc(CNc2nn3cc(-c4ccccc4)nc3s2)cc1", "% Inhibition": 18, "Z score": -2.27}, {"smiles": "Cc1ccc(-n2ncc3c2CC(C)(C)C[C@@H]3NC(=O)c2n[nH]c(=O)c3ccccc23)cc1", "% Inhibition": -1, "Z score": 0.07}, {"smiles": "Cc1ccc(CN2C(=O)c3oc4ccccc4c3OC[C@@]2(C)C(=O)NC2CCCC2)cc1", "% Inhibition": -4, "Z score": 0.52}, {"smiles": "Cc1cc(OCc2ccccc2Cl)c2nncn2n1", "% Inhibition": 0, "Z score": 0.03}, {"smiles": "CCS(=O)(=O)N[C@@H](C)c1ccc(C)cc1C", "% Inhibition": 4, "Z score": -0.84}, {"smiles": "Cc1cc(C)cc([C@@H](O)CNC(=O)NCC(C)(C)c2ccncc2)c1", "% Inhibition": 30, "Z score": -4.4}, {"smiles": "O=C(C1=CCC1)N1Cc2cccc(F)c2C1", "% Inhibition": -19, "Z score": 1.64}, {"smiles": "COc1ccc(OCc2nc(C)cc(=O)n2CC(=O)Nc2cc(C(F)(F)F)ccc2Cl)cc1", "% Inhibition": 32, "Z score": -3.6}, {"smiles": "Cc1nc2sc([C@H](c3cccs3)N3CCC4(CC3)OCCO4)c(O)n2n1", "% Inhibition": -2, "Z score": 0.39}, {"smiles": "Cc1nc2sc3c(n2c1C(=O)N(C)C)CC[C@H](C)C3", "% Inhibition": 8, "Z score": -0.98}]}]}
